Measurements: ChEMBL document CHEMBL3046856, “Synthesis and fungicidal activity of novel pimprinine analogues” (2012)

Columns and labels:
Phytophthora infestans [1] = assay: Fungicidal activity against Phytophthora infestans infected on compound pre-treated tomato leaf pieces assessed as control of disease or pathogen at 60 ppm measured after 5 to 14 days by leaf-piece assay
Fusarium graminearum [2] = assay: Fungicidal activity against Fusarium graminearum grown on compound supplemented artificial media assessed as control of disease or pathogen at 2 ppm measured after 5 to 14 days by artificial media assay
Fusarium graminearum [3] = assay: Fungicidal activity against Fusarium graminearum grown on compound supplemented artificial media assessed as control of disease or pathogen at 20 ppm measured after 5 to 14 days by artificial media assay
Phytophthora infestans [4] = assay: Fungicidal activity against Phytophthora infestans infected on compound pre-treated tomato leaf pieces assessed as control of disease or pathogen at 200 ppm measured after 5 to 14 days by leaf-piece assay

Row | Structure (SMILES) | Activity (Phytophthora infestans [1]) | Activity (Fusarium graminearum [2]) | Activity (Fusarium graminearum [3]) | Activity (Phytophthora infestans [4])
1 | Cn1cc(-c2ocnc2Br)c2ccccc21 | 0% | 0% | 0% | 49%
2 | COC(=O)n1cc(-c2ocnc2Br)c2ccccc21 | 0% | 0% | 0% | 0%
3 | COC(=O)n1cc(-c2ocnc2Cl)c2ccccc21 | 0% | 0% | 0% | 0%
4 | ClC(Cl)=CCn1cc(-c2ocnc2Br)c2ccccc21 | 0% | 0% | 0% | 0%
5 | CCn1cc(-c2ocnc2Br)c2ccccc21 | 0% | 49% | 0% | 0%
6 | CCC(=O)n1cc(-c2ocnc2Br)c2ccccc21 | 0% | 0% | 0% | 0%
7 | CCS(=O)(=O)n1cc(-c2ocnc2Cl)c2ccccc21 | 0% | 0% | 0% | 0%
8 | COCC(=O)n1cc(-c2ocnc2Br)c2ccccc21 | 0% | 0% | 99% | 0%
9 | CC(=O)n1cc(-c2ocnc2Br)c2ccccc21 | 0% | 0% | 0% | 0%
10 | CCC(=O)n1cc(-c2ocnc2Cl)c2ccccc21 | 0% | 0% | 0% | 0%
11 | Cn1cc(-c2ocnc2Cl)c2ccccc21 | 0% | 0% | 0% | 0%
12 | Clc1ncoc1-c1cn(CC2CC2)c2ccccc12 | 0% | 0% | 0% | 49%
13 | O=C(n1cc(-c2ocnc2Cl)c2ccccc21)C(Cl)(Cl)Cl | 0% | 0% | 99% | 0%
14 | c1ccc2c(-c3cnco3)c[nH]c2c1 | 0% | 0% | 0% | 0%
15 | O=C(C(Cl)Cl)n1cc(-c2ocnc2Cl)c2ccccc21 | 0% | 0% | 99% | 0%
16 | CC(Cl)C(=O)n1cc(-c2ocnc2Cl)c2ccccc21 (configuration not stated) | 0% | 0% | 0% | 0%
17 | CC(=O)n1cc(-c2ocnc2Cl)c2ccccc21 | 0% | 0% | 0% | 0%

Row | Structure (SMILES) | Activity (Phytophthora infestans [1]) | Activity (Fusarium graminearum [2]) | Activity (Fusarium graminearum [3]) | Activity (Phytophthora infestans [4])
18 | Fc1ccc(Cn2cc(-c3ocnc3Cl)c3ccccc32)c(F)c1 | 49% | 0% | 0% | 0%
19 | CC(Cl)C(=O)n1cc(-c2ocnc2Br)c2ccccc21 (configuration not stated) | 0% | 0% | 0% | 0%
20 | O=C(C(Cl)Cl)n1cc(-c2ocnc2Br)c2ccccc21 | 0% | 0% | 99% | 0%
21 | CCn1cc(-c2ocnc2Cl)c2ccccc21 | 0% | 0% | 0% | 0%
22 | O=C(CCl)n1cc(-c2ocnc2Cl)c2ccccc21 | 0% | 0% | 99% | 27%
23 | Clc1ncoc1-c1c[nH]c2ccccc12 [Streptochlorin] | 49% | 0% | 99% | 0%
24 | C=CCn1cc(-c2ocnc2Br)c2ccccc21 | 0% | 0% | 0% | 49%
25 | C=CCn1cc(-c2ocnc2Cl)c2ccccc21 | 0% | 0% | 0% | 0%
26 | Clc1ncoc1-c1cn(CC2CO2)c2ccccc12 (configuration not stated) | 0% | 0% | 0% | 0%
27 | CCS(=O)(=O)n1cc(-c2ocnc2Br)c2ccccc21 | 0% | 0% | 0% | 0%
28 | O=C(CCl)n1cc(-c2ocnc2Br)c2ccccc21 | 0% | 0% | 99% | 99%
29 | COCC(=O)n1cc(-c2ocnc2Cl)c2ccccc21 | 0% | 0% | 0% | 0%
30 | CCOC(=O)C(=O)n1cc(-c2ocnc2Cl)c2ccccc21 | 0% | 0% | 99% | 0%
31 | Brc1ncoc1-c1c[nH]c2ccccc12 | 0% | 0% | 99% | 49%
32 | Brc1ncoc1-c1cn(CC2CC2)c2ccccc12 | 0% | 0% | 0% | 27%
33 | CCOC(=O)Cn1cc(-c2ocnc2Cl)c2ccccc21 | 0% | 0% | 0% | 49%
